This is one part of the list.
System: PF3D7_0420300 AP2 domain 1 (GST-tagged)
Experiment: gcPBM binding intensity (ln(normalized median fluorescence intensity)); higher = stronger DNA binding
Outline: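 In this array assay, P. falciparum DNA-binding domains with a GST tag, expressed in E. coli, were applied for 1 h to primer-extended double-stranded 36-bp intergenic genomic probes and negative controls on an Agilent 4 × 180k array. Bound protein was visualised with Alexa488 anti-GST antibody at 488 nm. Binding intensity is the highest Masliner-normalised natural-log median intensity across replicate spots of either probe orientation.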

| Sequence | gcPBM binding intensity (ln) |
| --- | --- |
| AATTTATTATTTTATTGTACGTATTTTTTTTTTTAT [XGTACX_site2298] | 9.58 |
| AAAAAATATTAGACTTATAAAGCATAAAGGATATTA [GTGCAC_negctrl_site588] | 9.2 |
| ATATTATAGTTATGAACATGCAAACATTACGAAATA [TGCATGCA_site54] | 9.34 |
| CATATATAAATATATACACACATACATACATACATA [CACACA_site5988] | 9.67 |
| ATATTTGCATGTGGTAGTACATAACATTCTTTTACA [XGTACX_site8194] | 9.34 |
| ATATCTTATAATACGGTGCACTTGACATGAACAACT [GTGCAC_site9987] | 9.35 |
| ACATATTATATATGTGTGCACATATATATATATTTA [GTGCAC_site9591] | 9.6 |
| CTTCAATTAAAATTCACACATATAAATTAAAATATT [CACACA_site6129] | 9.06 |
| ATATATAATTAATTTTGTACACATAAAAAAAAAAAT [XGTACX_site6647] | 9.37 |
| AGAGAGAAAGCTATAACATGCAACAATTTTTTGAAA [TGCATGCA_site514] | 9.25 |
| CACCCCCACAGACACACACACACACCCATATATATA [CACACA_site364] | 10.3 |
| AAGATTCATTGGTTCTGTACAAAATAAACACTATAA [XGTACX_site834] | 9.21 |
| AATATATATATTTAAGTGCATAATATTGTAATATTA | 9.19 |
| TTACCAAAAAAATGTAGTACAATATAATATTATTTA [XGTACX_site5750] | 9.18 |
| ATATATTATGAAGACTGTACATTTACATGAAAAAAA [XGTACX_site7203] | 9.31 |
| ATAAAAATAAAAAGTGTGCACACAAAAATATATATA [GTGCAC_site9931] | 9.9 |
| TTAATTGACATAAAAAGTACTCATATAGATATGCAC [XGTACX_site6391] | 9.15 |
| AAAAAGAACAGAAACACACAAATAAAATAAAATTGT [CACACA_site6921] | 9.78 |
| AAATGTTAATAAAGGTGTACACAAAATAAAAAAAAT [XGTACX_site463] | 9.71 |
| TAATTTTATTTTATATGTACGCAATACAAATATATA [XGTACX_site8461] | 8.95 |
| AAAGAAAGAAGAAATTGTACATAATAAATAAGTAAA [XGTACX_site3311] | 9.28 |
| ATATAAACAATATTTTGTACATAATTTTATGAGCAT [XGTACX_site6933] | 9.25 |
| GCATATGTTTATTGCACACACCAAAAAGAAAACATA [CACACA_site4384] | 9.59 |

| Sequence | gcPBM binding intensity (ln) |
| --- | --- |
| ATTATTTGTTTAATGAGTACGAAGACAAATTTTACC [XGTACX_site5223] | 9.18 |
| AAAGGAAAAAAAAGCACACACAATATTACTTGAAAT [CACACA_site2588] | 9.89 |
| GTACTATACAAAGATGATAATCAATATATATATATA [XGTACX_negctrl_site264] | 9.22 |
| TATATACACAGACACACACACACATACACGCACATA [CACACA_site6909] | 10.3 |
| TTCACCAGTTGGTAAACATGCAATTTTCCATACAAG [TGCATGCA_site267] | 9.02 |
| AAAAAAAACGGACACACACACATACCCATACATACA [CACACA_site5574] | 10.1 |
| ATATAAATACATAAATGTACTTACCATTTAAATATG [XGTACX_site5254] | 9.14 |
| ATTCTTTTAAAATAGGTGCTAAAAATAATATGTTAC | 9.08 |
| CTTTTGTCATTCTTTTGTACACAGTTTGAAATATGT [XGTACX_site1457] | 9.39 |
| AAATAGAGAAATACAAGTACATATCAAACCAATATA [XGTACX_site1192] | 9.62 |
| ATAATAAATAAATAATGTACATATGAAAGAATAAAT [XGTACX_site8355] | 9.63 |
| ATAAAAAAGAAACAAACACACATACATACAAACAAA [CACACA_site4256] | 10.1 |
| TACATTTATATATATACACACACACTAATAAAAAAA [CACACA_site8845] | 10 |
| ATATGTATATATAAGGTGCAGAAAGGTGGGCAAAAG | 9.75 |
| TAAATACAGATATATACACACATATATATATTTTAT [CACACA_site5970] | 9.58 |
| TCATATATTTTAATATGTACACATTTTTTTGGTATA [XGTACX_site8695] | 9.35 |
| TTTTTCTTTATTAGCACACATAATATTATATATGTG [CACACA_site2629] | 9.16 |
| TACAGACTAAAATACACACACACACGCACATATATA [CACACA_site7875] | 10.2 |
| TAATAATAAAAATAAACACACATATATATGTATATA [CACACA_site2853] | 9.49 |
| AAATTATATTCAAGTGCATGTAACTTATTATTATAT [TGCATGCA_site526] | 9.14 |
| ATATTTATTTATTTATGTACGCACACAGTTGATATT [XGTACX_site5808] | 9.63 |
| CACTATATAAGAACCTGTACTCAATTTTGCAATATA [XGTACX_site7238] | 9.22 |
| TATATTTTCCTGCAAACACACATATAAATGTGTAGA [CACACA_site533] | 9.18 |

| Sequence | gcPBM binding intensity (ln) |
| --- | --- |
| AAAATAAAATAAAAGTGTACGTTTTAAGAACATTGA [XGTACX_site2382] | 9.31 |
| AACATGCTCAACTTTTTTTTTTTTTTTTTTTTTTTT [CACACA_negctrl_site1617] | 9.21 |
| GTAAAAATAAAAACTGGTACACAAGTTGTTATAAAA [XGTACX_site502] | 9.27 |
| CTTTTTTGTTAAAGTGTGCGCAATAGTTATAGACTT [GTGCAC_site9670] | 9.19 |
| TATAATCAATATGTAACACACAAAAGTTATATACTT [CACACA_site7368] | 9.43 |
| AATCTTAAAAATATATGTACTAAAAAAAAAAAAAAT [XGTACX_site6195] | 9.27 |
| TATATATATATATATACACACTATATAATTCAAACA [CACACA_site4712] | 9.43 |
| ATGAATAAATTAAAAATGCACACTTTGATGGGTACA [CACACA_site2157] | 9.43 |
| AAACTTGTAAGAAACACACACACACCCATATATATA [CACACA_site797] | 10.1 |
| AAATTGGGGCTTGTTACACACTTAGTGGGAGTTCTA [CACACA_site4485] | 9.44 |
| TATACCAGTTTTAAAAGTACTTGTGCATAAAAAATA [XGTACX_site4794] | 9.14 |
| TTACGATTATACAAAAGTACATGTATTACACAATAT [XGTACX_site5138] | 9.33 |
| AAAAATTATAGAAAAGTGCAATACATGTTACACCAT | 9.28 |
| TACAATAAGGATAAGTGTACATATGTGCATACATAT [XGTACX_site7188] | 9.42 |
| CATATAGCATAATCATGTACACATACAACAAATAGG [XGTACX_site1589] | 9.63 |
| TTTTTATATTTAATGTGTCCTCACTTAAAAGGATGA [XGTACX_site2744] | 8.77 |
| TATAATAATTATACATGTACACATTATTTGGATAAA [XGTACX_site5552] | 9.17 |
| ATTCTCCAAGTTTGATGTACACATATGACGACGGCG [XGTACX_site4912] | 9.12 |
| AATATATTTTTTGGTTGTACAGAGATCTTTGTAGAA [XGTACX_site1707] | 9.01 |
| TTGTAATAAAGAATTAAAAAAAAATATATACAGGTA [GTGCAC_negctrl_site150] | 9.22 |
| TATACCTTTTTATTCACACATATATGTCATATGTCA [CACACA_site5423] | 9.4 |
| TATTACTTATAAATTACACACAAATGATTGAACATT [CACACA_site2259] | 9.44 |
| TTAATTACATGTAATTGTACTTAATTATAAGACATT [XGTACX_site464] | 8.99 |

| Sequence | gcPBM binding intensity (ln) |
| --- | --- |
| TTTTACCTAAATATCACACATATTTAAATATATATA [CACACA_site5597] | 9.24 |
| TTAAAATAAAGAAAATGTACATAAATAAAAATAAAG [XGTACX_site2280] | 9.36 |
| CAACTAATATTAAAACGTACATAAATATTTAACAGA [XGTACX_site625] | 9.46 |
| ATCACATATATATATAATATATATATGTATATATTT [GTGCAC_negctrl_site249] | 8.98 |
| ATATATATATATATATGTACATATATTTTTATTTAT [XGTACX_site3508] | 9.01 |
| AAAAAAAATATATATGCACACACAAAAAAACAAATT [CACACA_site8349] | 9.87 |
| AACATATATATATATACATGCATATGAACAACGAAT [TGCATGCA_site93] | 9.62 |
| TATAAAAATGTTTACACACACACATAAATATATTTT [CACACA_site2512] | 9.93 |
| TTTTTTTTTTTTCTGAGTACGAAAAATAGAGATAGA [XGTACX_site3825] | 8.67 |
| TGTATAAATATAATCACACATATATATATATATATA [CACACA_site4365] | 9.15 |
| AAGTTACAAAATCAAAAGGAAAAAATATAAAATAAT [CACACA_negctrl_site561] | 9.42 |
| CAAGAAAATTGACACACACACATATTTATATTTATA [CACACA_site7766] | 10 |
| AAAAAAAAATACATATGTACTTATGTATAATGTTGT [XGTACX_site8104] | 9.33 |
| ATTATACCACCCGATATACACACTTGTAGACATCTT [CACACA_site7944] | 9.51 |
| CATGTTATGATTCCATGTACTTATAGCATTAAAAAA [XGTACX_site8939] | 8.95 |
| TTTTTTTAATTAGTTTGTACATATTGTTATAATATA [XGTACX_site6294] | 9.23 |
| ATAAAAAGGAGACACACACACACACGCATATTTATA [CACACA_site6551] | 10.3 |
| TATATTAAACCATGTAGTACCTTGAATAAATATTAT [XGTACX_site8254] | 9.23 |
| ATAAGCTCATGCAGGTGTACACAAAAAGAAAAAAAA [XGTACX_site2433] | 9.29 |
| ATAATGAAAAGGAACATACACACCCCATATAAATAT [CACACA_site3442] | 9.86 |
| AAATTAAATGTAAGCACACATAAATTATACTCATAT [CACACA_site5782] | 9.36 |

Reference: the supplement of paper PMC11417369
